# In the supplement of paper PMC6089552:
# Screen size: about 3,200 compounds; about 300 (9.4%) showed activity. This is a selection; strong and weak results do not stand in their true shares.
# System: A673/TR/shEF
# Experiment: cell viability (LOESS-normalised, relative to median of negative controls) (log2 ratio); higher = more viable cells (less compound effect), active = hit call of the paper (over 3 MAD below the median)
# Details: treatment time: 72 h
# How it was run: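 Doxycycline, present or absent from 24 h before compounds, was used to induce EWS-FLI1 shRNA knockdown in A673/TR/shEF Ewing sarcoma cells at 1,500 per well in 384-well plates. Cells then received library compounds at two or more concentrations, or DMSO controls, for three days. Viability was measured by CellTiter-Glo luminescence on an Envision reader, and per-plate LOESS correction, division by the negative-control median and log2 transformation followed.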
# [1] = 0.103 µM, library screen: screen3, EWS-FLI1 expression: high (no doxycycline)
# [2] = 0.103 µM, library screen: screen3, EWS-FLI1 expression: low (doxycycline-induced shRNA knockdown)
# [3] = 0.25 µM, library screen: screen1, EWS-FLI1 expression: high (no doxycycline)
# [4] = 0.25 µM, library screen: screen1, EWS-FLI1 expression: low (doxycycline-induced shRNA knockdown)
# [5] = 0.25 µM, library screen: screen2, EWS-FLI1 expression: high (no doxycycline)
# [6] = 0.25 µM, library screen: screen2, EWS-FLI1 expression: low (doxycycline-induced shRNA knockdown)
# [7] = 0.308 µM, library screen: screen3, EWS-FLI1 expression: high (no doxycycline)
# [8] = 0.308 µM, library screen: screen3, EWS-FLI1 expression: low (doxycycline-induced shRNA knockdown)
# [9] = 0.926 µM, library screen: screen3, EWS-FLI1 expression: high (no doxycycline)
# [10] = 0.926 µM, library screen: screen3, EWS-FLI1 expression: low (doxycycline-induced shRNA knockdown)
# [11] = 2.5 µM, library screen: screen1, EWS-FLI1 expression: high (no doxycycline)
# [12] = 2.5 µM, library screen: screen1, EWS-FLI1 expression: low (doxycycline-induced shRNA knockdown)
# [13] = 2.5 µM, library screen: screen2, EWS-FLI1 expression: high (no doxycycline)
# [14] = 2.5 µM, library screen: screen2, EWS-FLI1 expression: low (doxycycline-induced shRNA knockdown)
# [15] = 2.8 µM, library screen: screen3, EWS-FLI1 expression: high (no doxycycline)
# [16] = 2.8 µM, library screen: screen3, EWS-FLI1 expression: low (doxycycline-induced shRNA knockdown)
# [17] = 8.3 µM, library screen: screen3, EWS-FLI1 expression: high (no doxycycline)
# [18] = 8.3 µM, library screen: screen3, EWS-FLI1 expression: low (doxycycline-induced shRNA knockdown)
# [19] = 25 µM, library screen: screen3, EWS-FLI1 expression: high (no doxycycline)
# [20] = 25 µM, library screen: screen3, EWS-FLI1 expression: low (doxycycline-induced shRNA knockdown)
compound,measurement,setting,value
NS(=O)(=O)c1cc2c(cc1Cl)NCNS2(=O)=O,cell viability (log2),[1],inactive: 0.0475
same,cell viability (log2),[2],inactive: 0.0356
same,cell viability (log2),[3],inactive: 0.106
same,cell viability (log2),[4],inactive: -0.00905
same,cell viability (log2),[5],inactive: 0.0648
same,cell viability (log2),[6],inactive: -0.00556
same,cell viability (log2),[7],inactive: 0.0838
same,cell viability (log2),[8],inactive: 0.115
same,cell viability (log2),[9],inactive: 0.134
same,cell viability (log2),[10],inactive: -0.0103
same,cell viability (log2),[11],inactive: 0.141
same,cell viability (log2),[12],inactive: 0.0832
same,cell viability (log2),[13],inactive: 0.089
same,cell viability (log2),[14],inactive: -0.0555
same,cell viability (log2),[15],inactive: 0.201
same,cell viability (log2),[16],inactive: 0.0285
same,cell viability (log2),[17],inactive: 0.0896
same,cell viability (log2),[18],inactive: 0.061
same,cell viability (log2),[19],inactive: 0.181
same,cell viability (log2),[20],inactive: 0.0767
NC(N)=N/N=C/c1c(Cl)cccc1Cl,cell viability (log2),[3],inactive: 0.0575
same,cell viability (log2),[4],inactive: 0.0266
same,cell viability (log2),[5],inactive: 0.133
same,cell viability (log2),[6],inactive: 0.0666
same,cell viability (log2),[11],inactive: 0.115
same,cell viability (log2),[12],inactive: 0.0808
same,cell viability (log2),[13],inactive: 0.171
same,cell viability (log2),[14],inactive: 0.124
CN(C)CCc1c[nH]c2ccc(C[C@H]3COC(=O)N3)cc12,cell viability (log2),[1],inactive: 0.158
same,cell viability (log2),[2],inactive: 0.00174
same,cell viability (log2),[7],inactive: 0.131
same,cell viability (log2),[8],inactive: 0.0288
same,cell viability (log2),[9],inactive: 0.0978
same,cell viability (log2),[10],inactive: 0.109
same,cell viability (log2),[15],inactive: 0.103
same,cell viability (log2),[16],inactive: 0.0615
same,cell viability (log2),[17],inactive: 0.084
same,cell viability (log2),[18],inactive: 0.14
same,cell viability (log2),[19],inactive: 0.026
same,cell viability (log2),[20],inactive: 0.0892
CN(C)CCC=C1c2ccccc2C=Cc2ccccc21,cell viability (log2),[3],inactive: 0.131
same,cell viability (log2),[4],inactive: 0.0615
same,cell viability (log2),[5],inactive: 0.206
same,cell viability (log2),[6],inactive: 0.141
same,cell viability (log2),[11],inactive: 0.117
same,cell viability (log2),[12],inactive: 0.104
same,cell viability (log2),[13],inactive: 0.126
same,cell viability (log2),[14],inactive: 0.0683
O=c1[nH]c(=O)n([C@H]2C[C@H](O)[C@@H](CO)O2)cc1F,cell viability (log2),[3],active: -1.07
same,cell viability (log2),[5],active: -0.231
same,cell viability (log2),[7],active: -0.266
same,cell viability (log2),[9],active: -0.534
same,cell viability (log2),[11],active: -1.48
same,cell viability (log2),[13],active: -0.805
same,cell viability (log2),[15],active: -0.621
same,cell viability (log2),[17],active: -0.85
same,cell viability (log2),"25 µM, library screen: screen2, EWS-FLI1 expression: high (no doxycycline)",active: -0.944
same,cell viability (log2),[19],active: -1.03
Nc1ccc(C(=O)Oc2ccccc2)c(O)c1,cell viability (log2),[3],inactive: 0.134
same,cell viability (log2),[4],inactive: 0.181
same,cell viability (log2),[11],inactive: 0.136
same,cell viability (log2),[12],inactive: 0.157
CC1=C(/C=C/C(C)=C/C=C/C(C)=C/C(=O)Nc2ccc(O)cc2)C(C)(C)CCC1,cell viability (log2),[5],inactive: 0.202
same,cell viability (log2),[6],inactive: 0.108
same,cell viability (log2),[13],inactive: 0.144
same,cell viability (log2),[14],inactive: 0.0949
COc1ccc2c(c1)OCC(=Cc1ccc(OC)c(O)c1)C2=O,cell viability (log2),[3],inactive: 0.111
same,cell viability (log2),[4],inactive: 0.0739
same,cell viability (log2),[11],inactive: 0.125
same,cell viability (log2),[12],inactive: 0.0254
COc1cc2c(cc1OC)[C@@H](c1ccccc1)CN(C)CC2,cell viability (log2),[5],inactive: 0.0687
same,cell viability (log2),[6],inactive: 0.111
same,cell viability (log2),[13],inactive: 0.192
same,cell viability (log2),[14],inactive: 0.0125
NC(=O)c1ncn([C@@H]2O[C@H](CO)[C@@H](O)[C@H]2O)c1N,cell viability (log2),[1],inactive: 0.135
same,cell viability (log2),[2],inactive: 0.0617
same,cell viability (log2),[7],inactive: 0.0707
same,cell viability (log2),[8],inactive: 0.0876
same,cell viability (log2),[9],inactive: 0.088
same,cell viability (log2),[10],inactive: 0.0588
same,cell viability (log2),[15],inactive: 0.1
same,cell viability (log2),[16],inactive: 0.0775
same,cell viability (log2),[17],inactive: 0.0463
same,cell viability (log2),[18],inactive: 0.126
same,cell viability (log2),[19],inactive: 0.13
same,cell viability (log2),[20],inactive: 0.087
CCC(=O)O[C@H]1[C@H](O[C@@H]2[C@@H](C)[C@H](O[C@H]3C[C@@](C)(OC)[C@@H](O)[C@H](C)O3)[C@@H](C)C(=O)O[C@H](CC)[C@@](C)(O)[C@H](O)[C@@H](C)C(=O)[C@H](C)C[C@@]2(C)O)O[C@H](C)C[C@@H]1N(C)C,cell viability (log2),[3],inactive: 0.222
same,cell viability (log2),[4],inactive: 0.0632
same,cell viability (log2),[11],inactive: 0.0888
same,cell viability (log2),[12],inactive: 0.166
O=c1cc([C@H]2Oc3cc(O)cc(O)c3C[C@H]2O)cc2c([C@H]3Oc4cc(O)cc(O)c4C[C@H]3O)cc(O)c(O)c2c1O,cell viability (log2),[3],inactive: 0.0869
same,cell viability (log2),[4],inactive: 0.0834
same,cell viability (log2),[11],inactive: 0.134
same,cell viability (log2),[12],inactive: 0.162
O=C(O)c1cc(O)c2c(c1)[C@H]([C@H]1c3cc(C(=O)O)cc(O)c3C(=O)c3c(O[C@@H]4O[C@H](CO)[C@@H](O)[C@H](O)[C@H]4O)cccc31)c1cccc(O[C@@H]3O[C@H](CO)[C@@H](O)[C@H](O)[C@H]3O)c1C2=O,cell viability (log2),[3],inactive: 0.102
same,cell viability (log2),[4],inactive: 0.0132
same,cell viability (log2),[11],inactive: 0.0773
same,cell viability (log2),[12],inactive: 0.0657
CC(=O)Oc1cc(C(C)C)c(OCCN(C)C)cc1C,cell viability (log2),[5],inactive: 0.138
same,cell viability (log2),[6],inactive: 0.0935
same,cell viability (log2),[13],inactive: 0.152
same,cell viability (log2),[14],inactive: 0.139
CCN(CC)C(C)C(=O)N1c2ccccc2Sc2ccccc21 (configuration not stated),cell viability (log2),[5],inactive: 0.104
same,cell viability (log2),[6],inactive: 0.0808
same,cell viability (log2),[13],inactive: 0.114
same,cell viability (log2),[14],inactive: 0.0914
CC(c1cc2ccccc2s1)N(O)C(N)=O (configuration not stated),cell viability (log2),[1],inactive: 0.0127
same,cell viability (log2),[2],inactive: 0.0621
same,cell viability (log2),[7],inactive: 0.0838
same,cell viability (log2),[8],inactive: 0.0693
same,cell viability (log2),[9],inactive: 0.0243
same,cell viability (log2),[10],inactive: 0.106
same,cell viability (log2),[15],inactive: 0.0229
same,cell viability (log2),[16],inactive: 0.0581
same,cell viability (log2),[17],inactive: -0.00103
same,cell viability (log2),[18],inactive: 0.101
same,cell viability (log2),[19],inactive: 0.135
same,cell viability (log2),[20],inactive: 0.157
C[C@@H]1C(=O)O[C@H]2C[C@@]34[C@H]5C[C@@H](C(C)(C)C)[C@]36[C@@H](OC(=O)[C@@H]6O)O[C@@]4(C(=O)O5)[C@]21O,cell viability (log2),[3],inactive: 0.045
same,cell viability (log2),[4],inactive: 0.0713
same,cell viability (log2),[11],inactive: 0.0908
same,cell viability (log2),[12],inactive: 0.148
